In paper PMC4336329 (PLoS ONE, 2015):
About 14,000 (4.5%) of roughly 310,000 compounds showed an effect of 50% or more. The effect is printed as a negative number. The list shows a part of the results.

Target: human ether-à-go-go-related gene (hERG) potassium channel (human, UniProt Q12809)
Test: primary screen, population patch clamp on CHO cells stably expressing hERG
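Further: peak tail current of the secondary pulse compared with the same well before compound.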

Sequence of human ether-à-go-go-related gene (hERG) potassium channel (Q12809 whole entry, looked up): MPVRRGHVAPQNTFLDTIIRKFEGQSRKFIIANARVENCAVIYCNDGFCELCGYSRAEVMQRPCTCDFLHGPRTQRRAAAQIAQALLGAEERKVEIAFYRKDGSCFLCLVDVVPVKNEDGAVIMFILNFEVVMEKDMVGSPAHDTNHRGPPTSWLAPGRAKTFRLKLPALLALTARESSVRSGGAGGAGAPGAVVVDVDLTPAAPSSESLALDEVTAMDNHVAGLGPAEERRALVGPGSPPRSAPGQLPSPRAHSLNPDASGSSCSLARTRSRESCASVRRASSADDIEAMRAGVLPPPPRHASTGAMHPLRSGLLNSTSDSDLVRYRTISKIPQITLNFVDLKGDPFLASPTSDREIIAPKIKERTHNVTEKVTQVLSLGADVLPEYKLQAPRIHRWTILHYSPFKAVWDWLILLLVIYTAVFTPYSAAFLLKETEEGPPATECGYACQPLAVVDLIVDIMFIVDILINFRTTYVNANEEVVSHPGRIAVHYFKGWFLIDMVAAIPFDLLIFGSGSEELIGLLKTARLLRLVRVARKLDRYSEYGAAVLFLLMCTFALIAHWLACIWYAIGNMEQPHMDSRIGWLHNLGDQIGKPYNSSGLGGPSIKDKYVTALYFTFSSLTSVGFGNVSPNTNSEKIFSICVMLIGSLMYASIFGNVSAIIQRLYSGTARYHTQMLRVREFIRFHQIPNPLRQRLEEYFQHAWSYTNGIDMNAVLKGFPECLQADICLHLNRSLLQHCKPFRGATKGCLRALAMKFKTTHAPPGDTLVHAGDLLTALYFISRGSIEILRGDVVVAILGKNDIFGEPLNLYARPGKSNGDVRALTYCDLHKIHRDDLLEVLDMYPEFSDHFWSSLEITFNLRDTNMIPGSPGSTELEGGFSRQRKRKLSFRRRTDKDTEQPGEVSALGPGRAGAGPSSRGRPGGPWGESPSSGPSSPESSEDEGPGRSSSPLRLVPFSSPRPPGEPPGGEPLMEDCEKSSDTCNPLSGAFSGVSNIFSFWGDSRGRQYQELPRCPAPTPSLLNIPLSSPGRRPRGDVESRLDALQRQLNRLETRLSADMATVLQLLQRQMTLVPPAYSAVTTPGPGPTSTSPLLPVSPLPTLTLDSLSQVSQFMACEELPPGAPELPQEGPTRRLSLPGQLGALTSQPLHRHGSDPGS

| SMILES | hERG current change (%, negative = inhibition) at 10uM |
| --- | --- |
| Cc1cc(C)cc(NC(=O)CCC(=O)Nc2nnc(C(C)C)s2)c1 | 24.1% |
| Cc1ccc(-n2c([C@@H]3C[C@H]3c3ccccc3)n[nH]c2=S)cc1 | 15.7% |
| COc1ccc(S(=O)(=O)NCCOc2ccccc2)cc1OC | 0.452% |
| CN(CCCC1CCCC1)C(=O)c1cc(COc2c(F)cccc2F)on1 | -14.6% |
| CCCCCC(=O)N/N=C(\C)c1ccccn1 | -1.17% |
| COc1ccc(CNC(=O)Cn2nc(C)c3c(C)n(-c4ccc(C)cc4)nc3c2=O)cc1OC | 8.32% |
| Cc1cc(C(F)(F)F)nc(SCc2ccc(C(=O)O)o2)n1 | -2.51% |
| CCOc1ccc(S(=O)(=O)Nc2cccc(C(=O)N(C)Cc3cccc(OC)c3OC)c2)cc1 | -11.6% |
| CCC(=O)N1CCN(c2ccccc2NC(=S)NC(=O)c2cccc([N+](=O)[O-])c2)CC1 | -69.9% |
| Cc1cc(C)c2c(=O)[nH]c(SCc3ccccc3)nc2n1 | 7.73% |
| CCOc1ccc2oc(-c3ccccc3)c(C(=O)O)c2c1 | 5.16% |
| COc1ccc(NC(=S)NCc2ccc3c(c2)OCO3)cc1 | 18.7% |
| CC(=O)C(C(C)=O)C(c1ccccc1)c1nc2ccccc2[nH]c1=O (stereo not drawn) | 14.1% |
| CC[n+]1c(/C=C2/C=C(C)CC(C)C2)sc2ccccc21.[I-] (stereo not drawn) | -3.25% |
| O=C(Nc1cc(Cl)ccc1-n1cncn1)C1CC1 | -2.55% |
| Cc1oc(-c2ccccc2F)nc1CSCC(=O)NC1CC1 | 3.12% |
| CC1(/[N+]([O-])=C/c2ccc(Cl)cc2Cl)CCCCC1=O (stereo not drawn) | 6.3% |
| Cc1ccc(C(=O)Nc2nn(C)c3cccc(F)c23)cc1 | 15.9% |
| c1ccc2c(c1)[nH]c1c(NCC3CCCO3)ncnc12 (stereo not drawn) | 11% |
| O=C(O)Cn1cc(CN2CCOCC2)c2ccccc21 | 2.23% |
| CC12CCC(C(=O)N3CCN(c4ccccc4)CC3)(CC1=O)C2(C)C (stereo not drawn) | -19.4% |
| O=C(c1cc2c(ccc3ccccc32)o1)N1CCCCC1 | -7.55% |
| COc1ccc(S(=O)(=O)N2CCc3ccccc32)cc1C(=O)NC1(C)CCS(=O)(=O)C1 (stereo not drawn) | -22.2% |

| SMILES | hERG current change (%, negative = inhibition) at 10uM |
| --- | --- |
| CC(=O)N(Cc1cc2cc(C)c(C)cc2n2nnnc12)CC1COCCO1 (stereo not drawn) | -6.81% |
| COc1cc(/C=C/C(=O)O)cc(S(=O)(=O)Nc2ccccc2SC)c1OC | 15.5% |
| CC(=O)c1c(C)[nH]c(C(=O)COc2ccc(C#N)cc2)c1C | -4.06% |
| Cc1cc(Br)c(OCC(=O)NN)c2c1CCC2 | -6.78% |
| COc1ccccc1CNC(=O)CCS(=O)(=O)c1ccc2c(c1)CCN2C(C)=O | 5.48% |
| CCOc1cccc2c1OC1(C)CC2NC(=O)N1c1cccc(F)c1 (stereo not drawn) | 12.4% |
| CCn1c(SCC(=O)NC2CC2)nnc1-c1ccccn1 | 12.7% |
| c1ccc(N2CCN(c3ncnc4scc(-c5cccs5)c34)CC2)cc1 | 9.87% |
| O=C(C1CC(=O)N(C2CCCC2)C1)N1CCN(c2ccccc2)CC1 (stereo not drawn) | 2.34% |
| O=C(O)c1ccc(N/N=C/c2cccc3cccnc23)cc1 | 7.83% |
| Cc1cc(NC(=O)C2CCCCC2)n(-c2nc3ccccc3[nH]2)n1 | 17.4% |
| COC(=O)c1ccc2nc(NC(=O)CCS(=O)(=O)c3ccccc3)sc2c1 | -1.21% |
| Cc1ccccc1Nc1nc(N)nc(COC(=O)[C@@H](NC(=O)c2c(F)cccc2F)C(C)C)n1 | -13.3% |
| COc1cccc(/C=N/NC(=O)c2nc(-c3ccccc3)cc(-c3ccccc3)n2)c1 | -4.85% |
| CCOc1cc(-c2noc(CCC(=O)Nc3cccnc3)n2)ccc1OC | 10.4% |
| CCOC(=O)c1ccc(NC(=O)CCC(CC)C(=O)O)cc1 (stereo not drawn) | 3.24% |
| COc1ccc(N2CCN(CCNC(=O)c3ccc(NC(=O)C4CCCO4)cc3)CC2)cc1 (stereo not drawn) | 4.32% |
| Cn1ncc(Br)c1NC(=O)c1ccco1 | 24% |
| Cc1c(C(=O)NCc2ccccc2CN2CCCC2)oc2ccc(F)cc12 | -74% |
| CC(C)n1nnnc1CN1CCN(C)CC1.Cl | 8.81% |
| CC1CCc2nc(NC(=O)CSc3nc4ccccc4o3)sc2C1 (stereo not drawn) | -0.0769% |
| Nc1nnc(CSCc2ccc(F)cc2)s1 | -3.36% |
| O=C1Nc2cc(C(=O)N3CCN(c4ccccc4F)CC3)ccc2NC1CSCc1ccccc1F (stereo not drawn) | 17% |

| SMILES | hERG current change (%, negative = inhibition) at 10uM |
| --- | --- |
| CCOC(=O)c1c(-n2c(C)cc(/C=C3\C(=O)NC(=O)N(C)C3=O)c2C)sc2c1CCCC2 | 11.4% |
| CCc1ccc(-c2cc(C)no2)cc1S(=O)(=O)Nc1ccc(C)cn1 | 11.4% |
| CCOC(=O)c1[nH]c(CN2CCN(c3ccc(OC)cc3)CC2)c(C(=O)OCC)c1C | -14.3% |
| O=C(Cn1c(=O)oc2cc(S(=O)(=O)N3CCCC3)ccc21)Nc1ccccc1Br | 6.17% |
| COc1ccc(/C=N/c2nc3ccccc3n2C)cc1OC | -4.8% |
| CCN(CC)CCNC(=O)CCc1c(C)nc2c(c(C)nn2-c2ccc(C)c(C)c2)c1C | -62.3% |
| NC(=O)c1c(NC(=O)c2ccc(S(=O)(=O)N(CCCl)CCCl)cc2)sc2c1CCCCC2 | -4.07% |
| CC(=O)c1sc(NC(=O)c2c(F)cccc2F)nc1-c1ccccc1 | -30.7% |
| O=C(CSc1nnnn1C1CCCC1)N1CCOCC1 | 22% |
| O=C(Nc1ccc(F)cc1)Nc1cccnc1Cl | 8.49% |
| O=C(COc1ccc(S(=O)(=O)N2CCCC2)cc1Cl)NC1CC1 | -18.5% |
| CN(CC(=O)Nc1ccc(F)c(F)c1F)C(=O)C1CCCO1 (stereo not drawn) | 10% |
| COC(=O)c1sccc1NC(=O)c1cccc(OC)c1 | 18.3% |
| Cc1ccc(NC(=O)NNc2cccc(Cl)n2)cc1 | -12.4% |
| Cn1nnnc1SCc1ccc(C(=O)Nc2nccs2)cc1 | -6.13% |
| Cc1cccc(C)c1NC(=O)CSC(=O)c1sc2ccccc2c1Cl | 10.7% |
| CN1CCN(c2ccc(NC(=O)COc3ccccc3[N+](=O)[O-])cc2)CC1 | -10.5% |
| CCOc1ccccc1-n1c(COc2ccccc2)nnc1SCC(N)=O | -0.434% |
| CCN(CC)S(=O)(=O)c1ccc(C(=O)NCCc2cc3c(OC)ccc(OC)c3[nH]c2=O)cc1 | -48.6% |
| CCOC(=O)C1=C(c2ccc(O)cc2)NC(=O)NC1C (stereo not drawn) | 9.47% |
| Cc1ccc(S(=O)(=O)N(Cc2ccc(Cl)cc2)c2ccccc2C(=O)O)cc1 | 12.3% |
| Cn1cccc1CC(=O)N/N=C/C(Cl)=C/c1ccccc1 | -6.25% |
| Nc1c(Cl)ncnc1N/N=C/c1ccnc2ccccc12 | 1.91% |

| SMILES | hERG current change (%, negative = inhibition) at 10uM |
| --- | --- |
| CN(C)c1ccc(N=Cc2nc(-c3ccccc3)oc2O)cc1 | -3.97% |
| O=C(Nc1ccccc1NC(=O)c1ccc(F)cc1)c1ccc(F)cc1 | 22.9% |
| CSCCC(NC(=O)c1ccccc1Br)C(=O)N1CCCCCCC1 (stereo not drawn) | -6.56% |
| CC1CCN(S(=O)(=O)c2ccc(C(=O)OC(C)C(=O)N(C)C3CCCCC3)cc2)CC1 (stereo not drawn) | 4.78% |
| COc1ccc(SCCN2CC[C@@H](O)CCC2=O)cc1 | 13.8% |
| CCC(C)NS(=O)(=O)c1ccc(OCC(=O)NCc2ccco2)cc1 (stereo not drawn) | -3.2% |
| COc1cccc(Cn2cnc3c([N+](=O)[O-])c(C)c(C)cc32)c1 | -14.5% |
| COc1cc(NS(=O)(=O)c2ccc(NC(=S)Nc3ccccc3)cc2)nc(OC)n1 | 2.01% |
| C=CCNC(=O)CC(=O)N/N=C/c1ccc(C(=O)OC)cc1 | 9.83% |
| COc1ccc(C2C3=C(NCCN=C3c3ccccc3)C(=O)N2c2ccccc2)c(OC)c1 (stereo not drawn) | -2.87% |
| Cc1cccc(C)c1NC(=O)N1CCCC1C(=O)Nc1ccc(-n2cnnn2)cc1 (stereo not drawn) | -35.8% |
| COc1ccc(-c2ccc(CCC(=O)O)n2NC(N)=O)cc1 | 7.52% |
| Cc1ccc(-c2cn(S(=O)(=O)c3cccc4nsnc34)nc2N)cc1 | -0.598% |
| COCCn1c(C)cc(C(=O)CSc2nnc(C)s2)c1C | 1.57% |
| O=C1C2C(C(=O)N1Cc1cccnc1)C1C=CC2C12CC2 (stereo not drawn) | -1.16% |
| Cc1ccnc(N2CCN(C(=O)CSc3nc4ccccc4nc3N3CCCCC3)CC2)c1 | -12.2% |
| COc1ccc(CC(=O)Oc2ccc(C)cc2Br)cc1OC | 3.25% |
| N#Cc1nnn(Cc2ccccc2)c1N | 21.8% |
| CCC1CCC(C(=O)NC(C(=O)NCCCN2CCCCC2C)C(C)C)CC1 (stereo not drawn) | -15.3% |
| COc1ccc(/C=N/S(=O)(=O)c2ccccc2)cc1OC | 16.1% |
| O=C(NCc1ccc(Cl)cc1Cl)C(=O)N1CCCCC1 | 7.36% |
